Results: the supplement of paper PMC12217912
Some of the results follow. The full chains were built here from the parent and the listed change. Values near 0.05 are background.

B1: TEV protease; numbered along this chain (parent)
chain: MGESLFKGPRDYNPISSSICHLTNESDGHTTSLYGIGFGPFIITNKHLFRRNNGTLVVQSLHGVFKVKDTTTLQQHLVDGRDMIIIRMPKDFPPFPQKLKFREPQREERICLVTTNFQTKSMSSMVSDTSCTFPSGDGIFWKHWIQTKDGQCGSPLVSTRDGFIVGIHSASNFTNTNNYFTSVPKNFMELLTNQEAQQWVSGWRLNADSVLWGGHKVFMVKPEEPFQPVKEATQL

Variants of: B1
Assay: raw area under fraction-flipped curve 0-4 h after induction (AUC4h, not background-subtracted), DNA-recorder readout of cleavage of the substrate (dimensionless); higher = more cleavage of the substrate by the protease variant
Conditions: temperature: 34 °C; time window: 0-4 h after rhamnose induction
Experimental: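 In vivo DNA recorder in E. coli TOP10(DE3) ΔrhaA at 34 °C. Each TEVp single-site mutant (parent TEVp 0) is paired with a single-site variant of the 7-mer TEVs (canonical ENLYFQ|S). The substrate sits between flexible linkers in a Bxb1-sfGFP-TEVs-SsrA fusion, so cleavage stabilises Bxb1 and speeds flipping of a recombination array, read by NGS. The value is the raw area under the fraction-flipped curve over 0-4 h after rhamnose induction (AUC4h), with ≥20 reads per time point. It is not background-subtracted; inactive controls average about 0.047.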
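Note: Bxb1 expression induced with 0.2% (w/v) L-rhamnose at OD600 near 0.5, cultures sampled hourly, flipped fraction per protease–substrate barcode pair counted by paired-end Illumina sequencing.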

Row | Variant | area with substrate ENLAFQS | area with substrate ENLCFQS | area with substrate ENLDFQS | area with substrate ENLEFQS | area with substrate ENLFFQS | area with substrate ENLHFQS | area with substrate ENLIFQS | area with substrate ENLKFQS | area with substrate ENLLFQS | area with substrate ENLNFQS | area with substrate ENLRFQS | area with substrate ENLSFQS | area with substrate ENLTFQS | area with substrate ENLVFQS | area with substrate ENLMFQS | area with substrate ENLWFQS | area with substrate ENLPFQS | area with substrate ENLGFQS | area with substrate ENLQFQS
1 | MGEFLFKGPRDYNPISSSICHLTNESDGHTTSLYGIGFGPFIITNKHLFRRNNGTLVVQSLHGVFKVKDTTTLQQHLVDGRDMIIIRMPKDFPPFPQKLKFREPQREERICLVTTNFQTKSMSSMVSDTSCTFPSGDGIFWKHWIQTKDGQCGSPLVSTRDGFIVGIHSASNFTNTNNYFTSVPKNFMELLTNQEAQQWVSGWRLNADSVLWGGHKVFMVKPEEPFQPVKEATQL [S4F] | 0.0701 | 0.086 | 0.0631 | 0.0642 | 0.0988 | 0.079 | 0.111 | 0.0974 | 0.0794 | 0.059 | 0.083 | 0.0646 | 0.0823 | 0.0949 | – | – | – | – | –
2 | MGESYFKGPRDYNPISSSICHLTNESDGHTTSLYGIGFGPFIITNKHLFRRNNGTLVVQSLHGVFKVKDTTTLQQHLVDGRDMIIIRMPKDFPPFPQKLKFREPQREERICLVTTNFQTKSMSSMVSDTSCTFPSGDGIFWKHWIQTKDGQCGSPLVSTRDGFIVGIHSASNFTNTNNYFTSVPKNFMELLTNQEAQQWVSGWRLNADSVLWGGHKVFMVKPEEPFQPVKEATQL [L5Y] | 0.0712 | – | 0.0292 | – | 0.0693 | – | – | – | – | 0.0615 | – | 0.0479 | – | – | 0.0627 | 0.0193 | – | – | –
3 | MGESLRKGPRDYNPISSSICHLTNESDGHTTSLYGIGFGPFIITNKHLFRRNNGTLVVQSLHGVFKVKDTTTLQQHLVDGRDMIIIRMPKDFPPFPQKLKFREPQREERICLVTTNFQTKSMSSMVSDTSCTFPSGDGIFWKHWIQTKDGQCGSPLVSTRDGFIVGIHSASNFTNTNNYFTSVPKNFMELLTNQEAQQWVSGWRLNADSVLWGGHKVFMVKPEEPFQPVKEATQL [F6R] | 0.0731 | 0.0892 | 0.0565 | – | 0.0921 | – | – | 0.0756 | 0.075 | – | – | – | – | – | – | – | 0.0646 | – | –
4 | MGESLFNGPRDYNPISSSICHLTNESDGHTTSLYGIGFGPFIITNKHLFRRNNGTLVVQSLHGVFKVKDTTTLQQHLVDGRDMIIIRMPKDFPPFPQKLKFREPQREERICLVTTNFQTKSMSSMVSDTSCTFPSGDGIFWKHWIQTKDGQCGSPLVSTRDGFIVGIHSASNFTNTNNYFTSVPKNFMELLTNQEAQQWVSGWRLNADSVLWGGHKVFMVKPEEPFQPVKEATQL [K7N] | 0.0623 | – | 0.0645 | – | 0.107 | 0.0626 | 0.0979 | 0.0766 | – | 0.0745 | – | 0.0747 | – | – | – | – | 0.0715 | 0.063 | 0.0691
5 | MGESLFPGPRDYNPISSSICHLTNESDGHTTSLYGIGFGPFIITNKHLFRRNNGTLVVQSLHGVFKVKDTTTLQQHLVDGRDMIIIRMPKDFPPFPQKLKFREPQREERICLVTTNFQTKSMSSMVSDTSCTFPSGDGIFWKHWIQTKDGQCGSPLVSTRDGFIVGIHSASNFTNTNNYFTSVPKNFMELLTNQEAQQWVSGWRLNADSVLWGGHKVFMVKPEEPFQPVKEATQL [K7P] | 0.0737 | 0.0797 | 0.068 | 0.0637 | – | – | 0.0674 | 0.0816 | – | 0.0657 | 0.0757 | 0.0703 | 0.0578 | – | – | 0.0652 | 0.0535 | – | –
